Source: the supplement of paper PMC5499739
The full ranking holds about 16,000 sequences; the median of “Z-score” is about -0.37, and the highest 2% start at about 3.2. Some of the results follow.

tested on: RBM10 RRM1-ZnF (GST-tagged construct); assay: RNAcompete 7-mer binding Z-score; higher = stronger binding preference
In short: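 Each heptamer motif was given a one-sided Z-score for enrichment across the probes that contained it. GST-tagged RBM10 constructs (20 pmol) were combined with 1.5 nmol of a designed pool of 241 399 RNAs of up to 41 nt, transcribed from microarray-derived DNA templates. Binding took place in 1 ml Hepes pH 7.8 buffer containing KCl, NaCl, glycerol, DTT, BSA and glutathione Sepharose beads for 30 min at 4°C. After four 2-min washes at 4°C, bound RNA was identified by microarray hybridisation.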

Going from AGUACGA to AGUCCAU, the “RNAcompete 7-mer binding Z-score” value falls from -0.022 to -0.672.

Going from AGUUCGA to CAUCGCU, the “RNAcompete 7-mer binding Z-score” value falls from -0.558 to -0.818.

Going from UUACCAU to UAGCGAA, the “RNAcompete 7-mer binding Z-score” value rises from -0.668 to -0.0707.

Going from GCAGCAG to CAGCGCU, the “RNAcompete 7-mer binding Z-score” value falls from 0.618 to -0.441.

First: AUUAGGA
Second: UCACUCC
The “RNAcompete 7-mer binding Z-score” value of the first is higher: 2.2 for the first, -0.724 for the second.

Going from CACCUCC to AAUAUCA, the “RNAcompete 7-mer binding Z-score” value rises from -0.6 to -0.428.

First: CAAAUUU
Second: UCGGGAU
The “RNAcompete 7-mer binding Z-score” value of the first is lower: -0.681 for the first, 1.23 for the second.

Going from GGGCGAU to ACUAUGC, the “RNAcompete 7-mer binding Z-score” value falls from 1.4 to -0.626.

Going from CGUUCCA to CCAGUUA, the “RNAcompete 7-mer binding Z-score” value rises from -0.789 to -0.636.

Going from CACCGAA to AGCGGCA, the “RNAcompete 7-mer binding Z-score” value rises from -0.604 to 0.631.

First: UUGGCUU
Second: CGUACAC
The “RNAcompete 7-mer binding Z-score” value of the first is higher: -0.467 for the first, -0.483 for the second.

First: GGGAUAG
Second: UUCGUAC
The “RNAcompete 7-mer binding Z-score” value of the first is higher: 4 for the first, -0.694 for the second.

Compared with GCUAAUA, AACAUCU is lower in “RNAcompete 7-mer binding Z-score” value: -0.396 for the first, -0.756 for the second.

Compared with ACCCUGC, UUCCUGG is higher in “RNAcompete 7-mer binding Z-score” value: -0.629 for the first, -0.513 for the second.

First: AAGUCGG
Second: AGCAACG
The “RNAcompete 7-mer binding Z-score” value of the first is higher: 0.8 for the first, 0.0365 for the second.

Compared with GGAGUCU, UGUCUGG is higher in “RNAcompete 7-mer binding Z-score” value: 0.16 for the first, 0.339 for the second.

First: ACACCCU
Second: CUCCUCU
The “RNAcompete 7-mer binding Z-score” value of the first is lower: -0.854 for the first, -0.681 for the second.

First: CCAUAUA
Second: UUGAUGU
The “RNAcompete 7-mer binding Z-score” value of the first is lower: -0.681 for the first, -0.34 for the second.

Going from ACAGACC to CCAUUAC, the “RNAcompete 7-mer binding Z-score” value falls from -0.522 to -0.873.

Compared with UUGUGCC, UGUCGAG is higher in “RNAcompete 7-mer binding Z-score” value: -0.535 for the first, 0.00729 for the second.

First: UUACGAU
Second: GACUUAG
The “RNAcompete 7-mer binding Z-score” value of the first is lower: -0.539 for the first, -0.256 for the second.

Going from CCUUUGG to GAGAAAA, the “RNAcompete 7-mer binding Z-score” value rises from -0.522 to 0.361.

Going from GAAUGCG to CUGCACU, the “RNAcompete 7-mer binding Z-score” value falls from 0.501 to -0.522.

First: CGCAGCU
Second: UUCGCUG
The “RNAcompete 7-mer binding Z-score” value of the first is higher: -0.503 for the first, -0.636 for the second.

Going from GUUAAUG to UACUAAA, the “RNAcompete 7-mer binding Z-score” value falls from 0.768 to -0.545.

Compared with GUCUGCC, GACUCGU is lower in “RNAcompete 7-mer binding Z-score” value: -0.513 for the first, -0.685 for the second.

Compared with GGACACC, GCGGGGU is higher in “RNAcompete 7-mer binding Z-score” value: 0.748 for the first, 3.75 for the second.

First: UCAUAGC
Second: CAAAAGU
The “RNAcompete 7-mer binding Z-score” value of the first is lower: -0.769 for the first, -0.558 for the second.

Compared with ACCUGAA, GGUGCGC is higher in “RNAcompete 7-mer binding Z-score” value: -0.707 for the first, 1.51 for the second.

Going from CCUGGUC to UCAAAUC, the “RNAcompete 7-mer binding Z-score” value falls from -0.392 to -0.824.

First: UUUACGG
Second: AUAUGGC
The “RNAcompete 7-mer binding Z-score” value of the first is lower: -0.223 for the first, 0.03 for the second.

First: GCAAACA
Second: GACACCU
The “RNAcompete 7-mer binding Z-score” value of the first is higher: -0.0999 for the first, -0.633 for the second.

Going from UCGGACU to AAUCCAC, the “RNAcompete 7-mer binding Z-score” value falls from -0.383 to -0.662.

Compared with AGGCGGG, CUCAUGU is lower in “RNAcompete 7-mer binding Z-score” value: 2.83 for the first, -0.73 for the second.

First: CUGGUUA
Second: AACCUUU
The “RNAcompete 7-mer binding Z-score” value of the first is higher: 0.128 for the first, -0.932 for the second.

Compared with AUAACCC, AAAACUA is higher in “RNAcompete 7-mer binding Z-score” value: -0.782 for the first, -0.477 for the second.

Going from CCCUACG to UGUCCCA, the “RNAcompete 7-mer binding Z-score” value rises from -0.555 to -0.522.

Going from GCCGAUC to GUUGCGA, the “RNAcompete 7-mer binding Z-score” value rises from -0.717 to 0.485.

First: GAUUAGA
Second: UGGGAUU
The “RNAcompete 7-mer binding Z-score” value of the first is lower: 0.189 for the first, 1.9 for the second.

Compared with CGGGAAG, GCCAGGA is lower in “RNAcompete 7-mer binding Z-score” value: 2.18 for the first, 0.436 for the second.

Going from UGAAGAA to GUGUGAG, the “RNAcompete 7-mer binding Z-score” value rises from 0.228 to 1.95.

First: UUCUCGU
Second: CCACCCA
The “RNAcompete 7-mer binding Z-score” value of the first is lower: -0.737 for the first, -0.327 for the second.

Going from GAAAUAC to GGCUUAU, the “RNAcompete 7-mer binding Z-score” value falls from -0.327 to -0.344.

Going from GUCCUCG to UGCCCCA, the “RNAcompete 7-mer binding Z-score” value falls from -0.493 to -0.503.

Compared with AUGAUAA, GGUAAUU is higher in “RNAcompete 7-mer binding Z-score” value: -0.119 for the first, 0.729 for the second.

Going from AGACGAG to UUGCACA, the “RNAcompete 7-mer binding Z-score” value falls from 0.826 to -0.707.

Compared with UUUAACA, GCGUGGC is higher in “RNAcompete 7-mer binding Z-score” value: -0.539 for the first, 1.12 for the second.

Compared with UCCUACU, CAGAGGA is higher in “RNAcompete 7-mer binding Z-score” value: -0.837 for the first, 1.41 for the second.

Compared with UGACCUA, GCGUCCG is higher in “RNAcompete 7-mer binding Z-score” value: -0.776 for the first, -0.558 for the second.

Compared with GCCGAUU, CUGCACG is higher in “RNAcompete 7-mer binding Z-score” value: -0.737 for the first, -0.522 for the second.

Going from CUAGUCU to GGCGAAU, the “RNAcompete 7-mer binding Z-score” value rises from -0.743 to 0.703.

Compared with UCUACCC, UCAGCAU is higher in “RNAcompete 7-mer binding Z-score” value: -0.743 for the first, -0.23 for the second.

Compared with GCGGAUU, UGUCUAA is lower in “RNAcompete 7-mer binding Z-score” value: 0.794 for the first, -0.707 for the second.

First: UGUUUGA
Second: UGUAGUG
The “RNAcompete 7-mer binding Z-score” value of the first is lower: -0.116 for the first, 0.748 for the second.

Compared with ACUUUCG, AAGCUAU is higher in “RNAcompete 7-mer binding Z-score” value: -0.854 for the first, -0.535 for the second.

First: CCACAUC
Second: AGGCCGU
The “RNAcompete 7-mer binding Z-score” value of the first is lower: -0.659 for the first, -0.574 for the second.

First: AAGAUCA
Second: AGAGAGC
The “RNAcompete 7-mer binding Z-score” value of the first is lower: -0.181 for the first, 0.248 for the second.

First: AUCCACU
Second: CCAAAAA
The “RNAcompete 7-mer binding Z-score” value of the first is higher: -0.668 for the first, -0.795 for the second.

Compared with ACGUGUG, CGGAUAU is lower in “RNAcompete 7-mer binding Z-score” value: 0.527 for the first, 0.517 for the second.

First: UUGGCAA
Second: UCUCACU
The “RNAcompete 7-mer binding Z-score” value of the first is higher: 0.14 for the first, -0.646 for the second.

First: ACCCAUU
Second: AAGCCGC
The “RNAcompete 7-mer binding Z-score” value of the first is lower: -0.951 for the first, -0.539 for the second.

Compared with CGACGCG, GAGUUGC is higher in “RNAcompete 7-mer binding Z-score” value: -0.0739 for the first, 0.192 for the second.

Compared with CGGACAC, UAAGCCC is lower in “RNAcompete 7-mer binding Z-score” value: -0.0285 for the first, -0.779 for the second.

First: CAGGCCC
Second: GGCCUGU
The “RNAcompete 7-mer binding Z-score” value of the first is lower: -0.548 for the first, -0.379 for the second.

Going from GGUCGAG to UUCAAGC, the “RNAcompete 7-mer binding Z-score” value falls from 1.67 to -0.753.

Compared with UUGAUUG, CACGGAA is higher in “RNAcompete 7-mer binding Z-score” value: -0.0447 for the first, 0.683 for the second.

Going from GGCUAGA to GCACACG, the “RNAcompete 7-mer binding Z-score” value falls from 0.618 to -0.0707.

Going from UAGCGGG to CAUGCUG, the “RNAcompete 7-mer binding Z-score” value falls from 2.33 to -0.454.

Compared with AAUUACU, UCGUAAA is lower in “RNAcompete 7-mer binding Z-score” value: -0.535 for the first, -0.707 for the second.

First: GUCUGGG
Second: GUCGGCC
The “RNAcompete 7-mer binding Z-score” value of the first is higher: 1.42 for the first, -0.49 for the second.

Going from UUAUAAC to GGUUCAA, the “RNAcompete 7-mer binding Z-score” value rises from -0.704 to 0.202.

Going from CAAGACG to AUAUAGA, the “RNAcompete 7-mer binding Z-score” value rises from -0.207 to -0.145.

Compared with CGUAUAG, CAGUUAC is lower in “RNAcompete 7-mer binding Z-score” value: -0.132 for the first, -0.347 for the second.

Compared with GUCGCAG, AGCACGG is higher in “RNAcompete 7-mer binding Z-score” value: -0.035 for the first, 0.949 for the second.

First: AGCGGCU
Second: CGCACUG
The “RNAcompete 7-mer binding Z-score” value of the first is higher: 0.186 for the first, -0.379 for the second.

Going from CAUCGCG to CCCCGCU, the “RNAcompete 7-mer binding Z-score” value falls from -0.396 to -0.444.

Going from GGGAGUU to AAGCUCU, the “RNAcompete 7-mer binding Z-score” value falls from 2.08 to -0.733.

Going from ACACAAC to GGGCGCA, the “RNAcompete 7-mer binding Z-score” value rises from -0.607 to 1.42.

First: UCAUCAG
Second: CGGGUGA
The “RNAcompete 7-mer binding Z-score” value of the first is lower: -0.565 for the first, 2.66 for the second.

Going from GCUGUCG to GUACGCC, the “RNAcompete 7-mer binding Z-score” value rises from -0.373 to -0.214.

Going from AUGGUAG to CACAAAU, the “RNAcompete 7-mer binding Z-score” value falls from 2.74 to -0.652.

Compared with AAGUUUU, AGUCGUG is higher in “RNAcompete 7-mer binding Z-score” value: -0.444 for the first, 0.124 for the second.

Compared with AAGAGGU, CUGGAUA is lower in “RNAcompete 7-mer binding Z-score” value: 1.55 for the first, 0.436 for the second.

Going from CAUUUGC to CGUUUAC, the “RNAcompete 7-mer binding Z-score” value rises from -0.932 to -0.733.

First: CCUUGCU
Second: GCUGCAA
The “RNAcompete 7-mer binding Z-score” value of the first is lower: -0.906 for the first, -0.184 for the second.

Compared with UACCUAC, CCAGCGC is higher in “RNAcompete 7-mer binding Z-score” value: -0.724 for the first, -0.422 for the second.

Going from CGUUGAG to GAGGUGA, the “RNAcompete 7-mer binding Z-score” value rises from -0.0512 to 2.56.

Compared with GCGCCCA, CCCGACG is higher in “RNAcompete 7-mer binding Z-score” value: -0.655 for the first, -0.0902 for the second.

First: CCCGGGC
Second: GCUUGUA
The “RNAcompete 7-mer binding Z-score” value of the first is higher: -0.0479 for the first, -0.571 for the second.

Compared with GGAAAUU, CAGAUAA is lower in “RNAcompete 7-mer binding Z-score” value: 0.709 for the first, -0.269 for the second.

First: AGCCACU
Second: UGGAAGC
The “RNAcompete 7-mer binding Z-score” value of the first is lower: -0.727 for the first, 1.67 for the second.

With GUCGGUG the “RNAcompete 7-mer binding Z-score” value was 1.47.
